Among the data in PMC10726135 are binding signal (log2 normalized intensity) values, retold here.

This is one part of the list. At the low end of the ranking the order means little. Measured with an extract: partners may take part in the binding.

This test concerns the target T1, HNF4alpha2 (COS-7 nuclear extract) (UniProt P41235).
T1 sequence: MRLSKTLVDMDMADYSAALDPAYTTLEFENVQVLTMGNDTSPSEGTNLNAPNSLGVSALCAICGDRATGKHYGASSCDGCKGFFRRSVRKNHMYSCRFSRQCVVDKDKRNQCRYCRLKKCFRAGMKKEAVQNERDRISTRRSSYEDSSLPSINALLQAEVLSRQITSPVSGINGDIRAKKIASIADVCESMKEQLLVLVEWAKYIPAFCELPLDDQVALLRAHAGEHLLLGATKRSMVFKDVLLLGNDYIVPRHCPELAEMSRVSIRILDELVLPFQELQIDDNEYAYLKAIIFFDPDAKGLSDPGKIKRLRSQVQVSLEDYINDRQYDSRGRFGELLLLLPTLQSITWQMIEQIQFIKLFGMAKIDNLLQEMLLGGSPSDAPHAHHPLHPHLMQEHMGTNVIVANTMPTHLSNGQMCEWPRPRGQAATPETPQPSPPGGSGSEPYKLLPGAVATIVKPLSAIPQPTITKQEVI
As to the kind of experiment: protein-binding microarray. The following applies: COS-7 nuclear extract on double-stranded Agilent 4x180k PBM; binding buffer, salt, pH and temperature not given; high values mean tight binding; double strand, one strand shown; sequences stand for … in …GCCTAGGGAGATTAGAGTATCGGTCGA
In the case of TTTCAAAGACAAATATCGACAAGCCAGATC, the binding signal (log2 normalized intensity) is -1.2.

Take TGTTTCTGGAGAATGCTGTCCTGCCAGTTG: the binding signal (log2 normalized intensity) was found to be 0.812.

Regarding CAGCAAGCATTAATCCCTGAGCCTGGACCT, the binding signal (log2 normalized intensity) turned out to be 1.98.

Take CTTCCCATAAAACCTAGACAGAAGCTTTCT: the binding signal (log2 normalized intensity) is -1.13.

For GGGGAATAAAGAACGCTCACAGAAAGAAGA, the binding signal (log2 normalized intensity) was -1.13.

Turning to AGGATTTACTTATACAGCGTCTAAGAAGAT, the binding signal (log2 normalized intensity) was -1.13.

In the case of CCAGTGGACTCTCTGTTTGATCAGCTGGTC, the binding signal (log2 normalized intensity) came out at 1.66.

AAACAGGTTCTTCCACGACTCCCCCGCTCA: the binding signal (log2 normalized intensity) came out at 3.17.

Consider CTGCATTCCTCCTGGCCTCTCTGAGCAGCC, for which the binding signal (log2 normalized intensity) was -1.2.

As to CTTTCCACCCTGTTGCACAAGCTGTGTGGC, the binding signal (log2 normalized intensity) amounted to 0.784.

Regarding GCATTTTGCAGACCTTGGTCAAAGTGACAC, the binding signal (log2 normalized intensity) was 1.79.

Consider GGCCTGTGCTGGGGACAAAAGCTGAGTCCC, for which the binding signal (log2 normalized intensity) is -1.12.

For the sequence CTTGAGCACTAAAGAGGCTACCAGACCTTG, the binding signal (log2 normalized intensity) was -1.09.

Consider GGGCATAGCAGATAAGCATTGTGTGTGTTG, for which the binding signal (log2 normalized intensity) is 2.19.

In the case of TGGGGGAAATTCTCAAAAGTTTTTCCCTTC, the binding signal (log2 normalized intensity) was 0.685.

For TCCAGAAGGTCAGGACCACACATTCCATTA, the binding signal (log2 normalized intensity) was -1.11.

Turning to CACACGGTGTCCAGATTCCAGCCTCCTGCT, the binding signal (log2 normalized intensity) is -1.11.

Consider GCAGTGGCGCAATCTCAGCTCAATCTCTGT, for which the binding signal (log2 normalized intensity) was -1.18.

ACCTGACTAAAACCTGCTGCAGGAGAGATG: the binding signal (log2 normalized intensity) was -1.13.

Regarding GGAGTTAGGGAAAAGATAAGGCGTAGTTCA, the binding signal (log2 normalized intensity) amounted to 0.477.

For GGAATGCAGTGACATGATCAAAGTTCATTG, the binding signal (log2 normalized intensity) was 4.07.

CTTGTCCAGGGACTTTGAACACTTCTTTGT: the binding signal (log2 normalized intensity) stood at 3.55.

TAGTTTTGTAACTTAAAGATCATGTTTGAG: the binding signal (log2 normalized intensity) was determined as 1.58.

For TCTATCTCCCTGTGACCTCCAACTATTGCT, the binding signal (log2 normalized intensity) came out at 0.84.

GAACTTTGACTTATTTAGTAGTGGCAAGAG: the binding signal (log2 normalized intensity) is 2.7.

For the sequence CACAGCACTGTTTATTTTGTGTGATACTCA, the binding signal (log2 normalized intensity) came out at 1.54.

For the sequence GTCCAAGTCCAAAGGTCTGAGAACCAAGAG, the binding signal (log2 normalized intensity) is 3.21.

TCGGCTCCATCTAGCAGCCCCAACCCACTG: the binding signal (log2 normalized intensity) is 2.95.

Turning to AGTTCAGGCCTCGGCTTCATTAGCAAATAA, the binding signal (log2 normalized intensity) was -1.12.

On to TTCTGGCAAAGCCAATCTGCTTAAAGGCAA, for which the binding signal (log2 normalized intensity) was -1.24.

With GGGAAAAGATAAGATTATCTCGTCACCTTT, the binding signal (log2 normalized intensity) is 0.962.

On to TCTCTGGTCGGGGAGGTGTTTATCTTGTGG, for which the binding signal (log2 normalized intensity) was 1.75.

For the sequence TCCTACTGACCTCCGACCCCACGGACTTAA, the binding signal (log2 normalized intensity) came out at 4.05.

Take ATTCCTTCAGGAAGGCCTGTTAAAAACACG: the binding signal (log2 normalized intensity) was -1.15.

Turning to CAGGACCAGGTGTAGATAAACTGGAAAGGG, the binding signal (log2 normalized intensity) was -1.08.

Regarding CATGAGAAACATGACACCCATCATGAGTAG, the binding signal (log2 normalized intensity) was -1.03.

Consider AAGAAAAACAAGTGGAGTAGGATTTCTAGT, for which the binding signal (log2 normalized intensity) is -1.06.

Take TATCTAGGGTCAAAGGGTCAAGTTCAGATC: the binding signal (log2 normalized intensity) is 5.2.

With CCTGAGATGTCTGCTTCTTGGGTCAAAGTC, the binding signal (log2 normalized intensity) was 2.87.

TATGCTCTCTCTCCACCTGGAGGGACTTTG: the binding signal (log2 normalized intensity) was 2.59.

As to TGGTCCAAGGTACATGTCTCTGCTCCTAAA, the binding signal (log2 normalized intensity) came out at 1.08.

In the case of GGCCTTTGGACCCAGACTGAATCACACTAC, the binding signal (log2 normalized intensity) is 3.76.

For the sequence CCCCTACACAGAGGAGCGACCCAGGCAGCC, the binding signal (log2 normalized intensity) was -1.16.

For TTCTTTTAGTGTGCTCTGGGTCTGTCCTTT, the binding signal (log2 normalized intensity) worked out at 2.84.

As for AACTGTACTTTGGACTGGGGACCTGGTCTG, the binding signal (log2 normalized intensity) was 4.13.

For the sequence GGGTGGGGTTGGAGTCCAGAGTTCAGGTAG, the binding signal (log2 normalized intensity) turned out to be 2.87.

For the sequence GCATATCTAGAGTCTGACTACTTCTCACCA, the binding signal (log2 normalized intensity) was -0.102.

Regarding TACTGAGAGGCCAGCTAAAACTGCAGATTG, the binding signal (log2 normalized intensity) was -1.04.

With AAACTCTGAAAGCACTAAGTTACCTCATCT, the binding signal (log2 normalized intensity) was -1.12.

As for AGTTCAGTCTTTATTGGTACGTTCCAATAT, the binding signal (log2 normalized intensity) stood at 1.57.

Take CTTTGACCTTACCAGCCCACTCTTAGCAGA: the binding signal (log2 normalized intensity) is -1.18.

For the sequence TTGGGTGAGTGTTAGAGCACCCTCTGGAGG, the binding signal (log2 normalized intensity) is -1.21.

Consider AAGTGCATACTCAAAGAATTTAACACCAGA, for which the binding signal (log2 normalized intensity) was -0.831.

As to ACAGGGCAAAGGTGCCAGGTAATTCAAAGC, the binding signal (log2 normalized intensity) is -1.12.

Turning to AAGCAGGTTCACATTTTTGTCATCTTCACT, the binding signal (log2 normalized intensity) came out at 0.599.

As for ATGAGCTAGAGCTCGTGTCATCTCTGGCTA, the binding signal (log2 normalized intensity) is -1.26.

With CAGACTAGTATTGAGTTTGCTCTGCTACTA, the binding signal (log2 normalized intensity) was -1.06.

Regarding GATGTGTGAAGGACACAGAATGACTTTCAG, the binding signal (log2 normalized intensity) was -0.81.

With GAAAGTCTTGATAAGAAACCCAAGATTTGG, the binding signal (log2 normalized intensity) is -1.02.

As for TGTCAAAATCTGATCTTTCCTCTAAGTGCC, the binding signal (log2 normalized intensity) was 0.598.

Turning to CATGCTCCCCACCCCCAACTTCCCCAACCC, the binding signal (log2 normalized intensity) was found to be 6.67.

As for GATCCACGGAGAATGTAGACCTTTACCACC, the binding signal (log2 normalized intensity) came to 1.74.

Take GCAGAGTGTCCCATATCACATTTTAAGGTC: the binding signal (log2 normalized intensity) turned out to be 1.97.

Take CTCTGTGATAGCCTTTTACCTTGGCAGCCA: the binding signal (log2 normalized intensity) was -0.515.

For GATACCTTCCTGAATGCCTAGGTGACAAGG, the binding signal (log2 normalized intensity) stood at 0.182.

For GGTGAGGGTGGGCCTGGGGGGAGACAACTG, the binding signal (log2 normalized intensity) was -1.22.

Take GGTTAAGCCACCAAAAAGTAAATAGCCCCA: the binding signal (log2 normalized intensity) worked out at 3.15.

Take TTGACCTTCGAACCCTTGCCATTTACATCA: the binding signal (log2 normalized intensity) was determined as 5.38.

TTCTGCGGAAATAATTGATTCAGGTGAGCC: the binding signal (log2 normalized intensity) came to 0.333.

As to CTATGCCCTTTGAAATTCTGGACTTTCAAC, the binding signal (log2 normalized intensity) was determined as 4.93.

For the sequence CCAGCTCTTTACTCAGGTCATCAGGACTCT, the binding signal (log2 normalized intensity) was found to be 1.11.

CTTTGACCTTTCCATAGTTCCGAGTTCCCT: the binding signal (log2 normalized intensity) is 1.18.

On to CAAAGTCCTAGAGTCCCTATTTGCTTGTGA, for which the binding signal (log2 normalized intensity) worked out at 0.906.

In the case of CCTCGGCTCGGCCCCAGTCCCCCGGACCAG, the binding signal (log2 normalized intensity) was determined as 3.59.

As to GAATGTGTGATAAGGAACTGTGTAATAAGG, the binding signal (log2 normalized intensity) came to 1.16.

Turning to TTCTTAAACGTATGCCACATCACCTCTGAC, the binding signal (log2 normalized intensity) was determined as 0.869.

For the sequence CTTTTGGTGAGTCTTTGCCCCTGGACTTTG, the binding signal (log2 normalized intensity) was 5.15.

As for AAGTGGTGATTTCGTTGAAAGCTGCTTCCC, the binding signal (log2 normalized intensity) is -1.13.

Turning to AGGGAATTTCTAGGTTTGATCTTTGCCCTA, the binding signal (log2 normalized intensity) is 6.85.

Consider TAATGAATAAGCACGTTAGAGAAAAAGCCC, for which the binding signal (log2 normalized intensity) was -1.2.

For the sequence CCAGGATCAAATACAGAATCAATGCCTGAT, the binding signal (log2 normalized intensity) is -0.749.

As to GTGGCCCCGAGATAAGGATTCCTGGAATGT, the binding signal (log2 normalized intensity) amounted to 1.23.

As to GTCAGGACAAGGCTCTGGTGGGGAATGCTA, the binding signal (log2 normalized intensity) is -1.14.

For the sequence TCCTGCCCCCTGGAGGAGTGAGGGATGTTC, the binding signal (log2 normalized intensity) is 1.9.

GGAGACCACTGGTGTAAGCTCTGGAGTCCA: the binding signal (log2 normalized intensity) turned out to be 0.767.

Take GGAGAATTTCACAAAGGGCAAAGTCCCCTT: the binding signal (log2 normalized intensity) was 6.34.

On to CAGCCTTTGGACTTTGAACTGCAACATCAG, for which the binding signal (log2 normalized intensity) stood at 8.26.

Turning to GCAGGCCTGGGGGCAAAGTCAGGTACTGGT, the binding signal (log2 normalized intensity) amounted to 0.527.

In the case of ACCTTTAGCACCGTAAGAGAGTATTTCCCA, the binding signal (log2 normalized intensity) was found to be 1.13.

As to TTCCCTCCTGTGAACTCGCGCCCCAACGGA, the binding signal (log2 normalized intensity) was -1.15.

With CACTTCGCATTTCCAAAAGAAGAATGTGGC, the binding signal (log2 normalized intensity) came to 0.393.

As to GAAGAGTGAGGTCACAGTATTCATTCCCCT, the binding signal (log2 normalized intensity) stood at 1.47.

Consider TTCTTATCTTTCTCAAGAGCAGAATCTACA, for which the binding signal (log2 normalized intensity) was 1.19.
